# Data as given in PubChem BioAssay AID1347417 (National Center for Advancing Translational Sciences (NCATS), 2020).
# About 5,300 (4.4%) of roughly 120,000 compounds were called active. Inconclusive results, whose numbers are uncertain, are shown with a selection of clear calls. Calls come from the whole dose curve; as a rule, active = well fitted inhibition curve with a large enough effect; inconclusive = small, poorly fitted or top-dose-only effect; inactive = no such curve, though single readings can be large or run the other way. A potency beside an inconclusive call is a rough fit, not a confirmed value.
# Assay: qHTS Primary assay for Inhibitors of Plasmodium falciparum Dd2 growth in vitro; note: nearly all actives have a fitted effect of over 65% in size;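 for activity, negative = inhibition: plate controls were DMSO vehicle for no effect and reference drug for full effect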
# Conditions: P. falciparum Dd2 growth, SYBR Green, 72 h; activity, negative = inhibition: at 28.9 µM (top of the series) unless noted; series mostly up to 28.9 µM
# In short: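 Infected erythrocytes (Dd2, 0.3% parasitemia, 2.5% hematocrit final) are added to compound in RPMI-1640/Albumax II medium, grown 72 h at 37C in low oxygen, then lysed with saponin/Triton-X containing SYBR Green and read by fluorescence.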
# Potency is the fitted concentration of half-maximal effect; tags give direction and shape of the fitted curve.
Compound,Potency,outcome,"activity, negative = inhibition"
COc1ccc(OC)c(NC(=O)c2oc3c(c2C)-c2nn(Cc4ccc(Cl)cc4)cc2CC3)c1,active: 10 µM,–,–
CCOC(=O)c1c(NC(=O)CSc2cn(CCNC(=O)c3ccc(OC)c(OC)c3)c3ccccc23)sc2c1CCC2,"inconclusive: 10 µM [inhibitor, single point]",–,–
COc1cc2c(cc1OCc1ccccc1)N(C(=O)Cc1ccc3c(c1)OCO3)CC21CCN(C)CC1,–,inactive,–
OCC1(CC2CC2)CCCN(Cc2ccccc2OC(F)F)C1 (stereo unspecified),"inconclusive: 1.58 µM [inhibitor, partial curve, poor fit]",–,–
COC(=O)CNC(c1ccccc1)c1cc(Br)ccc1NC(=O)c1ccc(Cl)cc1 (stereo unspecified),–,inactive,–
COc1ncc(-c2cc3c(nc2OC)nc(CCc2ccccc2)n3C)cn1,active: 7.94 µM,–,–
CC[C@H]1CN(S(=O)(=O)c2ccc(OC)cc2)CC[C@H]1CC(=O)NCCSC,"inconclusive: 11.2 µM [inhibitor, single point]",–,–
O=C1NC2(CN(Cc3ccc(C(F)(F)F)cc3)C2)Oc2ccccc21,"inconclusive: 11.2 µM [inhibitor, partial curve, poor fit]",–,–
COc1cccc(CN2C(=O)OC3(CCN(Cc4cccc(C)c4)CC3)C2(C)c2cccnc2)c1 (stereo unspecified),"inconclusive: 1 µM [inhibitor, partial curve, poor fit]",–,–
CN(Cc1cnn(-c2ccc(F)cc2)c1)C(=O)c1cn(Cc2cccc3ccccc23)nn1,–,–,inactive: -3.41%
O=C(Cc1c(F)cccc1Cl)N1CCN(Cc2ccccc2)CC(O)C1 (stereo unspecified),–,–,inactive: -16%
O=C1NCc2ccccc2CC12CCCN2Cc1cccc(Br)n1 (stereo unspecified),"inconclusive: 10 µM [inhibitor, single point]",–,–
CCc1ccc(S(=O)(=O)N2c3ccccc3CC2c2nnc(C3CCOCC3)o2)cc1 (stereo unspecified),"inconclusive: 1.41 µM [inhibitor, partial curve, poor fit]",–,–
CN1C(=O)C2(CCN(C(=O)c3ccccc3F)C2)c2ccccc21 (stereo unspecified),"inconclusive: 2.82 µM [inhibitor, single point]",–,–
O=C(CC1=CCCCC1)N1C[C@@H](CO)[C@H](c2ccccn2)C1,–,–,inactive: -0.406%
C[S+](=O)([O-])N1CC2(Cc3ccccc31)CN(C(=O)Cc1cccc(Cl)c1)C2,"inconclusive: 8.91 µM [inhibitor, partial curve]",–,–
CSc1cccc(NC(=O)CCn2ccn3nc4c(c3c2=O)CCCC4)c1,–,–,inactive: 25.4%
O=C(NC[C@H]1O[C@@H](CO)[C@@H](O)[C@H]1N1CCN(c2cccc(C(F)(F)F)c2)CC1)c1cccs1,"inconclusive: 0.398 µM [inhibitor, full curve, poor fit]",–,–
OCC1(CCCc2ccccc2)CCN(Cc2cccn2-c2nccs2)CC1,active: 10 µM,–,–
Cc1ccc(-n2nc3c(N4CCC(C(=O)NCCc5ccccc5)CC4)nnc(C)c3c2C)cc1,active: 6.31 µM,–,–
Cc1ccc(C)c(NC(=O)CCc2nc3cccnc3n2Cc2cccs2)c1,"inconclusive: 10 µM [inhibitor, partial curve]",–,–
Clc1ccccc1C1(c2ccnc(C3CCCC3)n2)CCNCC1,active: 3.98 µM,–,–

Compound,Potency,outcome,"activity, negative = inhibition"
Cc1ccc(C(=O)N2CCOc3ccc(CN4CCc5ccccc5C4)cc3C2)cn1,"inconclusive: 10 µM [inhibitor, single point]",–,–
Cc1cc(C)cc(C(=O)N2CCC3(CC2)c2nccn2-c2ccccc2CN3C)c1,"inconclusive: 2.51 µM [inhibitor, single point]",–,–
Cc1nc(-c2cccs2)cc([C@H]2CN3CC[C@H]2C[C@@H]3CNC(=O)C(C)(C)C)n1,"inconclusive: 35.5 µM [inhibitor, single point]",–,–
COCCN1C(=O)c2ccccc2C(C(=O)Nc2cccc(NC(C)=O)c2)C12CCCCC2 (stereo unspecified),–,inactive,–
COc1ccc(-n2ncc(C(=O)N3CCN(c4ncccn4)CC3)c2C2CCN(C(=O)OC(C)(C)C)CC2)cc1,–,–,inactive: 19.7%
O=C(CCc1cn(Cc2ccccc2Cl)c2ccccc12)NC1CCCCC1,"inconclusive: 17.8 µM [inhibitor, single point]",–,–
COc1ccc(CN2CCC3(C2)C(=O)Nc2ccccc23)cc1 (stereo unspecified),"inconclusive: 11.2 µM [inhibitor, single point]",–,–
Cc1ccc(C)c(OCC(=O)c2ccc3c(c2)N(CCCC(=O)NCC2CCCO2)C(=O)CO3)c1 (stereo unspecified),"inconclusive: 2.82 µM [inhibitor, single point]",–,–
CC(C)c1ccc(NC(=O)C2CCN(c3nc(-c4ccc(C(C)C)cc4)no3)CC2)cc1,"inconclusive: 8.91 µM [inhibitor, single point]",–,–
CCCCc1nc2ccccc2n2c(-c3ccc(OC)cc3)c3c(=O)n(C)c(=O)n(C)c3c12,"inconclusive: 17.8 µM [inhibitor, single point]",–,–
CC(C)SCC(=O)N1CCCC(N2CCN(c3ccc(F)cc3)CC2)C1 (stereo unspecified),–,–,inactive: -15.9%
Nc1cc(=O)nc(SCC(=O)Nc2ccc(F)cc2)n1-c1ccccc1Cl,–,–,inactive: 45.3%
COc1ccc(C)cc1NC(=O)C1CCN(S(=O)(=O)c2ccc3[nH]c4c(c3c2)CCCCC4)CC1,"inconclusive: 11.2 µM [inhibitor, single point]",–,–
O=C(COc1ccc([N+](=O)[O-])cc1)NCC1(N2CCOCC2)CCCCC1,"inconclusive: 10 µM [inhibitor, single point]",–,–
CC(=O)Nc1cccc(C(=O)NC2CCCN(c3cc(-c4ccc(Cl)cc4)[nH]n3)C2)c1 (stereo unspecified),"inconclusive: 0.141 µM [inhibitor, full curve, poor fit]",–,–
O=C(NCCc1cnc[nH]1)c1nc(-c2ccccc2)cc2[nH]ccc12,"inconclusive: 15.8 µM [inhibitor, single point]",–,–
COc1ccc(C2(C(=O)N3CCC[C@H]3c3nc(-c4ccccc4Cl)no3)CC2)cc1,"inconclusive: 8.91 µM [inhibitor, partial curve, poor fit]",–,–
O=C(Nc1cccc(-c2nnc3n2CCCC3)c1)C1CCCCC1,"inconclusive: 3.55 µM [inhibitor, partial curve, poor fit]",–,–
CCc1ccc(-n2nc(C)c3c2NC(=O)CSC3c2ccc(OC)cc2OC)cc1 (stereo unspecified),"inconclusive: 17.8 µM [inhibitor, single point]",–,–
CSc1ccc(CNC(=O)C2CCN(c3nnc(-n4cccc4CNc4ccc(C)cc4)s3)CC2)cc1,"inconclusive: 4.47 µM [inhibitor, partial curve, poor fit]",–,–
COc1ccc(C(=O)N2CCC(N3Cc4cnc(C)n4C3=O)CC2)cc1,–,–,inactive: 10.2%
CCN1c2cc(C(=O)NCc3ccc(OC)c(OC)c3)ccc2C(=O)N2CCCCCC21 (stereo unspecified),–,–,inactive: -23.4%

Compound,Potency,outcome,"activity, negative = inhibition"
O=[S+]1([O-])NC2(CCN(Cc3cccs3)CC2)COc2ccccc21,–,–,inconclusive: -53% [inhibitor]
CC(C)c1ccc(NC(=O)c2ccc3c(c2)CCCN3S(C)(=O)=O)cc1,–,–,inactive: -2.52%
CC(C)(C)c1ccc(-c2noc(-c3ncn4c3COC(c3ccc(F)cc3)C4)n2)cc1 (stereo unspecified),"inconclusive: 0.891 µM [inhibitor, partial curve]",–,–
COc1ccc(C(=O)N2CCC(c3n[nH]c(=O)n3-c3ccc(C)cc3)CC2)cc1,"inconclusive: 11.2 µM [inhibitor, single point]",–,–
CC(=O)c1cccc(NC(=O)O[C@@H]2CO[C@H]3[C@@H]2OC[C@@H]3Nc2nccc(-c3cccc(F)c3)n2)c1,"inconclusive: 0.251 µM [inhibitor, partial curve, poor fit]",–,–
COc1ccc2nc([C@H]3CCN(CC(C)C)C3)[nH]c2c1,"inconclusive: 25.1 µM [inhibitor, partial curve]",–,–
CNC(=O)[C@@H](Cc1ccccc1)N1CCC[C@H]1C(=O)NCCN(C)C,"inconclusive: 5.62 µM [inhibitor, single point]",–,–
CC(C)(C)OC(=O)N1CCC(c2c(C(=O)NCCCN3CCc4ccccc4C3)cnn2-c2ccccc2)CC1,active: 8.91 µM,–,–
COc1ccc(-c2c(C)c3cc(OC(=O)N4CCOCC4)ccc3oc2=O)cc1,–,–,inactive: -17.4%
CS(=O)(=O)c1cnc(NC2CCCCCC2)nc1C1CCCNC1 (stereo unspecified),"inconclusive: 17.8 µM [inhibitor, single point]",–,–
COc1ccccc1CNC(=O)C[C@@H]1CCNC[C@@H]1Cc1cc(C(C)(C)C)on1,"inconclusive: 25.1 µM [inhibitor, single point]",–,–
COc1ccc(Cl)cc1NC(=O)c1sc2nc3c(cc2c1N)N1CCC3CC1,–,–,inactive: 10.6%
CCC(C)n1c(SCc2c(F)cccc2Cl)nc2ccsc2c1=O (stereo unspecified),"inconclusive: 10 µM [inhibitor, single point]",–,–
COc1cc2c(cc1OC)C(COc1ccc(C(C)C)cc1)N(C(=O)c1ccc(S(=O)(=O)N3CCCC3)cc1)CC2 (stereo unspecified),active: 12.6 µM,–,–
CCNC(=O)c1ccc(-c2cc(NC3CCCC3)nc3[nH]ccc23)nc1,active: 10 µM,–,–
CC(C)(C)c1coc([C@@H]2COCCN2C2CCCCC2)n1,"inconclusive: 31.6 µM [inhibitor, single point]",–,–
Cc1ccccc1Cn1nnc2c(=O)[nH]c(C3CCCN(C(=O)c4ccc(F)cc4)C3)nc21 (stereo unspecified),–,–,inactive: -2.84%
CC(C)c1noc(-c2cn(C3CCCN(C(=O)c4ccc5c(c4)OCO5)C3)nn2)n1 (stereo unspecified),–,inactive,–
CCN(CCNC(=O)C1Cn2cccc2C(=O)N1)Cc1ccccc1 (stereo unspecified),–,inactive,–
C=CCNC(=O)N[C@H]1CCN(C(=O)CSC)[C@@H]1C(=O)N[C@@H](Cc1cccs1)C(N)=O,"inconclusive: 12.6 µM [inhibitor, partial curve, poor fit]",–,–
O=C(C[C@@H]1CCNC[C@@H]1Cc1cc(CC2CCCCC2)on1)NCc1ccco1,–,inactive [at 44.1 µM],–
c1csc(CN2Cc3[nH]cnc3C[C@H]2c2nc(-c3ccc4c(c3)OCO4)no2)c1,"inconclusive: 10 µM [inhibitor, partial curve]",–,–
